Experimental data from a collection of fitness landscapes (doi:10.1016/j.celrep.2020.107928).
The full ranking holds about 81,000 sequences; the median of “one-hybrid fitness for binding NBS DNA” is about -0.1, and the highest 2% start at about 0.36. Some of the results follow.

B1: Caulobacter ParB omega fusion; a variant is named by its letters at X, in order, B8GW30 (parent)
chain: MESVVVGEPGMSEGRRGLGRGLSALLGEVDAAPAQAPGEQLGGSREAPIEILQRNPDQPRRTFREEDLEDLSNSIREKGVLQPILVRPSPDTAGEYQIVAGERAWRAAQRAGLKTVPIMVRELDDLAVLEIGIIENVQRADLNVLEEALSYKVLMEKFERTQENIAQTIGKSXSHVANXMRLLXLPDEVQSYLVSGELTAXHARAIAAAADPVALAKQIIEGGLSVRETEALARKAPNLSAGKSKGGRPPRVKDTDTQALESDLSSVLGLDVSIDHRGSTGTLTITYATLEQLDDLCNRLTRGI

Variants of: B1
Test: one-hybrid fitness for binding NBS DNA (the Noc-binding site; scaled: cognate 1, non-cognate 0); higher = stronger binding
Settings: with NBS DNA site
Method in brief: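 Caulobacter ParB libraries with four specificity codons randomised were screened by bacterial one-hybrid selection in the E. coli USO strain, using a HIS3 reporter whose site lies 19 bp from the promoter. Selection ran for 48 hours at 37°C on M9 lacking histidine, with 0.1 mM IPTG and 5 mM 3-AT. Plasmids were Illumina-sequenced before and after selection, three replicate libraries were pooled, and variants with under 10 reads were dropped. Fitness is the log change in each variant's read ratio to wild type, rescaled against the cognate and non-cognate sites.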

Row | Variant | one-hybrid fitness for binding NBS DNA
1 | NGSR | ≤ 0.2
2 | RWSP | ≤ 0.2
3 | AINM | ≤ 0.2
4 | THVV | ≤ 0.2
5 | AFSC | ≤ 0.2
6 | TLYL | ≤ 0.2
7 | IAPV | ≤ 0.2
8 | CKTR | ≤ 0.2
9 | YCEC | ≤ 0.2
10 | SSKN | ≤ 0.2
11 | IGMS | ≤ 0.2
12 | TDWP | ≤ 0.2
13 | YPDG | ≤ 0.2
14 | WASP | ≤ 0.2
15 | AIRR | ≤ 0.2
16 | VRSQ | ≤ 0.2
17 | MILI | ≤ 0.2
18 | EDIS | ≤ 0.2
19 | RQCC | ≤ 0.2
20 | VFKW | ≤ 0.2
21 | CGAE | 0.595
22 | PDTR | ≤ 0.2
23 | WPVC | ≤ 0.2
24 | LRGA | ≤ 0.2

Row | Variant | one-hybrid fitness for binding NBS DNA
25 | SIHV | ≤ 0.2
26 | ANQR | ≤ 0.2
27 | WFTR | ≤ 0.2
28 | VGQM | ≤ 0.2
29 | PKYG | ≤ 0.2
30 | EIEL | ≤ 0.2
31 | PPAE | ≤ 0.2
32 | FVAC | ≤ 0.2
33 | PTYE | ≤ 0.2
34 | SNWT | ≤ 0.2
35 | RYET | ≤ 0.2
36 | QPVR | 0.377
37 | LLLN | ≤ 0.2
38 | TTHD | ≤ 0.2
39 | QCST | 0.553
40 | ASCL | ≤ 0.2
41 | YWRN | ≤ 0.2
42 | DLYM | ≤ 0.2
43 | QPEY | ≤ 0.2
44 | GWVR | ≤ 0.2
45 | RKMG | ≤ 0.2
46 | RESL | ≤ 0.2
47 | IRAF | ≤ 0.2
48 | QHVT | 0.327

Row | Variant | one-hybrid fitness for binding NBS DNA
49 | RTMK | ≤ 0.2
50 | TPTF | ≤ 0.2
51 | YLSD | ≤ 0.2
52 | QPPK | ≤ 0.2
53 | YWVL | ≤ 0.2
54 | AFHR | ≤ 0.2
55 | ASMR | ≤ 0.2
56 | QTCD | ≤ 0.2
57 | ECMP | ≤ 0.2
58 | CWKR | 0.206
59 | HLHF | ≤ 0.2
60 | HLIV | ≤ 0.2
61 | RPTL | ≤ 0.2
62 | FKAA | ≤ 0.2
63 | DLYS | ≤ 0.2
64 | GLGL | ≤ 0.2
65 | AIMG | ≤ 0.2
66 | RREM | ≤ 0.2
67 | YLEY | ≤ 0.2
68 | STQM | ≤ 0.2
69 | PQPR | ≤ 0.2
70 | ISCY | ≤ 0.2
71 | GDWL | ≤ 0.2
72 | LAEP | ≤ 0.2

Row | Variant | one-hybrid fitness for binding NBS DNA
73 | CTTG | ≤ 0.2
74 | GQIS | ≤ 0.2
75 | ENRG | ≤ 0.2
76 | TGQR | ≤ 0.2
77 | SHEK | ≤ 0.2
78 | QKGD | ≤ 0.2
79 | FGNC | ≤ 0.2
80 | SLTK | ≤ 0.2
81 | QFSK | ≤ 0.2
82 | QYNF | ≤ 0.2
83 | VTVE | ≤ 0.2
84 | LVSF | ≤ 0.2
85 | APIL | ≤ 0.2
86 | CQRM | ≤ 0.2
87 | VQSC | ≤ 0.2
88 | PHAL | ≤ 0.2
89 | NISL | ≤ 0.2
90 | IAHF | ≤ 0.2
91 | FATD | ≤ 0.2
92 | DLRY | ≤ 0.2
93 | FGMR | ≤ 0.2
94 | RPQE | ≤ 0.2
95 | GTLL | ≤ 0.2
96 | CKRT | ≤ 0.2

Row | Variant | one-hybrid fitness for binding NBS DNA
97 | TWRC | ≤ 0.2
98 | QGPQ | ≤ 0.2
99 | SAYS | ≤ 0.2
100 | DGLF | ≤ 0.2
101 | RWQK | ≤ 0.2
102 | TPIL | ≤ 0.2
103 | SANP | ≤ 0.2
104 | PNAH | ≤ 0.2
105 | RANE | ≤ 0.2
106 | AAAW | ≤ 0.2
107 | GLPF | ≤ 0.2
108 | HKTR | ≤ 0.2
109 | KSMI | ≤ 0.2
110 | FGTM | ≤ 0.2
111 | RMEP | ≤ 0.2
112 | GSRV | ≤ 0.2
113 | NELV | ≤ 0.2
114 | KLFE | ≤ 0.2
115 | TCSV | ≤ 0.2
116 | AYAM | ≤ 0.2
117 | GCSS | ≤ 0.2
118 | PPSF | ≤ 0.2
119 | KRKA | 0.552
120 | LISM | ≤ 0.2

Row | Variant | one-hybrid fitness for binding NBS DNA
121 | NPKY | ≤ 0.2
122 | GMPT | ≤ 0.2
123 | PYGG | ≤ 0.2
124 | CRHA | ≤ 0.2
125 | QVFY | ≤ 0.2
126 | HCEG | ≤ 0.2
127 | NVNR | ≤ 0.2
128 | PACR | ≤ 0.2
129 | IRHF | ≤ 0.2
130 | HRHP | ≤ 0.2
131 | LYWE | ≤ 0.2
132 | KADC | ≤ 0.2
133 | HEKD | ≤ 0.2
134 | AGGQ | ≤ 0.2
135 | PDNW | ≤ 0.2
136 | KNPS | ≤ 0.2
137 | GVPG | ≤ 0.2
138 | HRHT | ≤ 0.2
139 | TTLI | ≤ 0.2
140 | DFLP | ≤ 0.2
141 | QTES | 0.317
142 | KERS | ≤ 0.2
143 | ASEG | ≤ 0.2
144 | NIGW | ≤ 0.2

Row | Variant | one-hybrid fitness for binding NBS DNA
145 | KRFK | ≤ 0.2
146 | GSWG | ≤ 0.2
147 | NQTS | ≤ 0.2
148 | KCKK | ≤ 0.2
149 | MSLT | ≤ 0.2
150 | CRHR | 0.23
151 | WMIA | ≤ 0.2
152 | YNSC | ≤ 0.2
153 | DNVS | ≤ 0.2
154 | WLNT | ≤ 0.2
155 | LDES | ≤ 0.2
156 | NVLT | ≤ 0.2
157 | VYTT | ≤ 0.2
158 | NLHH | ≤ 0.2
159 | YDYI | ≤ 0.2
160 | QMFS | 0.251
161 | PRHA | ≤ 0.2
162 | IKVF | ≤ 0.2
163 | PNTC | ≤ 0.2
164 | LSSR | ≤ 0.2
165 | PQWW | ≤ 0.2
166 | SVEG | ≤ 0.2
167 | SNAT | ≤ 0.2
168 | GFTP | ≤ 0.2

Row | Variant | one-hybrid fitness for binding NBS DNA
169 | DHPI | ≤ 0.2
170 | QCVT | 0.428
171 | KCSF | ≤ 0.2
172 | ATHW | ≤ 0.2
173 | SEWR | ≤ 0.2
174 | EICA | ≤ 0.2
175 | QIKC | 0.239
176 | NKWR | ≤ 0.2
177 | NMST | ≤ 0.2
178 | IPTS | ≤ 0.2
179 | HKTW | ≤ 0.2
180 | PSRS | ≤ 0.2
181 | TWKE | ≤ 0.2
182 | SPGY | ≤ 0.2
183 | YHHW | ≤ 0.2
184 | PKSP | ≤ 0.2
185 | YCST | ≤ 0.2
186 | IVLR | ≤ 0.2
187 | APIC | ≤ 0.2
188 | IQDW | ≤ 0.2
189 | KVNV | ≤ 0.2
190 | GAPV | ≤ 0.2
191 | NPPN | ≤ 0.2
192 | STMP | ≤ 0.2

Row | Variant | one-hybrid fitness for binding NBS DNA
193 | ISTI | ≤ 0.2
194 | HHPR | ≤ 0.2
195 | HHRL | ≤ 0.2
196 | QLHI | ≤ 0.2
197 | AYVN | ≤ 0.2
198 | QDPD | ≤ 0.2
199 | PAGY | ≤ 0.2
200 | RSDM | ≤ 0.2
201 | VDSR | ≤ 0.2
202 | NIKC | ≤ 0.2
203 | ATRC | ≤ 0.2
204 | PCDC | ≤ 0.2
205 | AMCT | ≤ 0.2
206 | CPRT | ≤ 0.2
207 | TPFG | ≤ 0.2
208 | PAGT | ≤ 0.2
209 | QIWK | ≤ 0.2
210 | EVTF | ≤ 0.2
211 | EKTC | ≤ 0.2
212 | SLER | ≤ 0.2
213 | RCKE | ≤ 0.2
214 | RSEY | ≤ 0.2
215 | RCYE | ≤ 0.2
216 | LQAQ | ≤ 0.2

Row | Variant | one-hybrid fitness for binding NBS DNA
217 | NRSN | ≤ 0.2
218 | AYAL | ≤ 0.2
219 | PCTF | ≤ 0.2
220 | RNGG | ≤ 0.2
221 | QNQA | ≤ 0.2
222 | MASQ | ≤ 0.2
223 | LFSS | ≤ 0.2
224 | HLRS | ≤ 0.2
225 | NLWR | ≤ 0.2
226 | LRCV | ≤ 0.2
227 | QTVG | ≤ 0.2
228 | RHNG | ≤ 0.2
229 | ESNG | ≤ 0.2
230 | QTPV | ≤ 0.2
231 | HYAW | ≤ 0.2
232 | HPGS | ≤ 0.2
233 | EVSR | ≤ 0.2
234 | SQLR | ≤ 0.2
235 | ITNI | ≤ 0.2
236 | TCLC | ≤ 0.2
237 | CPDG | ≤ 0.2
238 | YIVF | ≤ 0.2
239 | TTVS | ≤ 0.2
240 | WRYS | ≤ 0.2

Row | Variant | one-hybrid fitness for binding NBS DNA
241 | WVQR | ≤ 0.2
242 | RPCD | ≤ 0.2
243 | QDQT | ≤ 0.2
244 | QMYR | 0.507
245 | NRTG | ≤ 0.2
246 | GLQG | ≤ 0.2
247 | TAVR | ≤ 0.2
248 | IVMG | ≤ 0.2
249 | LGTH | ≤ 0.2
250 | LVEQ | ≤ 0.2
251 | CGAH | ≤ 0.2
252 | NVWG | ≤ 0.2
253 | QVMV | ≤ 0.2
254 | SAHA | ≤ 0.2
255 | SIIG | ≤ 0.2
256 | RKDY | ≤ 0.2
257 | DHCT | ≤ 0.2
258 | WTHQ | ≤ 0.2
259 | QKCI | ≤ 0.2
260 | IHDS | ≤ 0.2
261 | RVRW | ≤ 0.2
262 | HHAA | ≤ 0.2
263 | MERS | ≤ 0.2
264 | RFHS | 0.275

Row | Variant | one-hybrid fitness for binding NBS DNA
265 | TPTK | ≤ 0.2
266 | WVGT | ≤ 0.2
267 | PGSF | ≤ 0.2
268 | VESL | ≤ 0.2
269 | ATDR | ≤ 0.2
270 | IYPY | ≤ 0.2
271 | KQLR | ≤ 0.2
272 | GCLF | ≤ 0.2
273 | RCGN | ≤ 0.2
274 | VKRS | ≤ 0.2
275 | RCPL | ≤ 0.2
276 | QTSH | 0.321
277 | NITE | ≤ 0.2
278 | IQDR | ≤ 0.2
279 | AKLH | ≤ 0.2
280 | HNTF | ≤ 0.2
281 | HLLP | ≤ 0.2
282 | CAHC | ≤ 0.2
283 | WPTT | ≤ 0.2
284 | RNTF | ≤ 0.2
285 | HALW | ≤ 0.2
286 | MLTN | ≤ 0.2
287 | RWMC | ≤ 0.2
288 | GVQT | ≤ 0.2

Row | Variant | one-hybrid fitness for binding NBS DNA
289 | QEYR | ≤ 0.2
290 | LTDS | ≤ 0.2
291 | TWLE | ≤ 0.2
292 | QVVM | ≤ 0.2
293 | SQYW | ≤ 0.2
294 | FDAS | ≤ 0.2
295 | VHHI | ≤ 0.2
296 | PRVA | ≤ 0.2
297 | YAHL | ≤ 0.2
298 | TDQF | ≤ 0.2
299 | QTNW | 0.243
300 | NVRT | ≤ 0.2
301 | KAAR | ≤ 0.2
302 | KTSD | ≤ 0.2
303 | DHKL | ≤ 0.2
304 | CIPY | ≤ 0.2
305 | MDRT | ≤ 0.2
306 | ASVC | ≤ 0.2
